The other results are listed elsewhere or left out.

For experiment [1], the system named is HSkMC (human skeletal muscle cells). The experiment in a line: cytotoxicity call (relative viability < 0.9). The following applies: 10 µM.
In experiment [2] the test system is HepG2. Briefly: cytotoxicity call (relative viability < 0.9). The following applies: 10 µM.
The test system of experiment [3] is S. aureus RN4220. The experiment in a line: growth inhibition call (relative growth <= 0.2). The following applies: 50 µM.

As to `Cc1ccc(NC(=O)[C@H]2CCCN(C(=O)c3c(C)cccc3F)[C@H]2c2ccc(NC3CCCC3)cc2)cc1C(F)(F)F`, the cytotoxicity call in experiment [1] and in experiment [2] was “inactive” each time. In addition, the growth inhibition call in experiment [3] is “inactive”.

In the case of `CCn1nc(C)cc1C(=O)NN`, the cytotoxicity call in experiment [1] and in experiment [2] was “inactive” throughout. Also, in experiment [3], the growth inhibition call is “inactive”.

For `COc1cccc(S(=O)(=O)N2C[C@@H](O)COC[C@@H]3O[C@H](CC(=O)N4CCN(C)CC4)CC[C@H]32)c1`, the cytotoxicity call in experiment [1] and in experiment [2] was “inactive” each time. The growth inhibition call in experiment [3] was “inactive”.

Regarding `C[C@H]1CN([C@@H](C)CO)C(=O)Cc2cc(NC(=O)C3CC3)ccc2O[C@@H]1CN(C)S(=O)(=O)c1ccc(F)cc1`, the cytotoxicity call in experiment [1] and in experiment [2] was “inactive” each time. Moreover, the growth inhibition call in experiment [3] is “inactive”.

As for `C[C@@H]1CCCCO[C@@H](CN(C)Cc2ccccc2)[C@@H](C)CN([C@H](C)CO)C(=O)c2cc(NC(=O)Nc3ccc(C(F)(F)F)cc3)ccc2O1`, the cytotoxicity call in experiment [1] was “inactive”. In experiment [2], the cytotoxicity call was “active”. Moreover, the growth inhibition call in experiment [3] is “inactive”.

`CN[C@@H](C)C(=O)N[C@H]1CN(C(=O)CC(C)C)CC[C@H]2CC[C@@H](C(=O)NC(c3ccccc3)c3ccccc3)N2C1=O`: the cytotoxicity call in experiment [1] was “inactive”. Moreover, the cytotoxicity call in experiment [2] was “active”. In experiment [3], the growth inhibition call is “inactive”.

`C[C@@H]1CN([C@@H](C)CO)C(=O)Cc2cc(NS(=O)(=O)c3cn(C)cn3)ccc2O[C@H]1CN(C)Cc1ccc(C(=O)O)cc1`: the cytotoxicity call in experiment [1] and in experiment [2] was “inactive” each time. The growth inhibition call in experiment [3] is “inactive”.

For `CC(C)(C)C(=O)Nc1c[nH]c(=O)[nH]c1=O`, the cytotoxicity call in experiment [1] and in experiment [2] was “inactive” each time. In experiment [3], the growth inhibition call is “inactive”.

On to `COc1ccc(S(=O)(=O)Nc2cccc3c2O[C@@H](CN(C)CC2CC2)[C@@H](C)CN([C@H](C)CO)C3=O)cc1`, for which the cytotoxicity call in experiment [1] and in experiment [2] was “inactive” each time. In addition, the growth inhibition call in experiment [3] was “inactive”.

Turning to `Cc1ccc(S(=O)(=O)Nc2ccc3c(c2)C(=O)N([C@H](C)CO)C[C@H](C)[C@H](CN(C)Cc2ccc(C(=O)Nc4ccccc4N)cc2)OCCCC[C@@H](C)O3)cc1`, the cytotoxicity call in experiment [1] and in experiment [2] was “inactive” throughout. Moreover, the growth inhibition call in experiment [3] is “inactive”.

For `O=C(C=Cc1ccc(O)cc1)c1ccc(O)cc1O`, the cytotoxicity call in experiment [1] and in experiment [2] was “inactive” in each case. Also, the growth inhibition call in experiment [3] is “inactive”.

Consider `COc1ccc2c(C)cc(=O)oc2c1`, for which the cytotoxicity call in experiment [1] and in experiment [2] was “inactive” in each case. Also, the growth inhibition call in experiment [3] was “inactive”.

With `C[C@@H]1CCCCO[C@H](CN(C)Cc2ccncc2)[C@@H](C)CN([C@@H](C)CO)C(=O)c2cc(NC(=O)Nc3ccccc3)ccc2O1`, the cytotoxicity call in experiment [1] and in experiment [2] was “inactive” throughout. For the same compound, the growth inhibition call in experiment [3] is “inactive”.

In the case of `C[C@H](CO)N1C[C@H](C)[C@H](CN(C)S(C)(=O)=O)Oc2cc(C#Cc3ccc(F)cc3)ccc2S1(=O)=O`, the cytotoxicity call in experiment [1] was “inactive”. The cytotoxicity call in experiment [2] was “active”. Further, in experiment [3], the growth inhibition call is “inactive”.

Regarding `C[C@@H]1CCCCO[C@H](CN(C)S(=O)(=O)c2ccccc2)[C@@H](C)CN([C@@H](C)CO)C(=O)c2cc(NC(=O)Nc3ccc(C(F)(F)F)cc3)ccc2O1`, the cytotoxicity call in experiment [1] and in experiment [2] was “inactive” each time. The growth inhibition call in experiment [3] was “inactive”.

With `O=C(C[C@@H]1C=C[C@@H](NC(=O)c2ccc(F)cc2)[C@H](CO)O1)NCc1ccncn1`, the cytotoxicity call in experiment [1] and in experiment [2] was “inactive” throughout. Also, the growth inhibition call in experiment [3] is “inactive”.

As to `C[C@H]1CN([C@@H](C)CO)C(=O)c2cc(NS(=O)(=O)c3cccs3)ccc2O[C@@H]1CN(C)S(=O)(=O)c1ccc(F)cc1`, the cytotoxicity call in experiment [1] and in experiment [2] was “inactive” throughout. In experiment [3], the growth inhibition call is “inactive”.

Take `CO[C@@H](C(=O)N(C)C[C@H]1OCc2ccccc2-c2c(n(C)c3ccccc23)C(=O)N([C@@H](C)CO)C[C@H]1C)c1ccccc1`: the cytotoxicity call in experiment [1] and in experiment [2] was “inactive” throughout. Also, the growth inhibition call in experiment [3] was “inactive”.

As for `C[C@@H]1CN([C@@H](C)CO)S(=O)(=O)c2ccc(Br)cc2O[C@H]1CN(C)Cc1cccc(F)c1`, the cytotoxicity call in experiment [1] and in experiment [2] was “inactive” throughout. For the same compound, in experiment [3], the growth inhibition call is “inactive”.

`NCc1nnc2n1CCC2`: the cytotoxicity call in experiment [1] and in experiment [2] was “inactive” in each case. Further, the growth inhibition call in experiment [3] is “inactive”.

Take `C[C@@H]1CN([C@@H](C)CO)C(=O)c2cc(NS(=O)(=O)c3cn(C)cn3)ccc2O[C@@H](C)CCCCO[C@@H]1CN(C)S(=O)(=O)c1ccccc1`: the cytotoxicity call in experiment [1] and in experiment [2] was “inactive” in each case. In addition, the growth inhibition call in experiment [3] was “inactive”.

`C[C@@H]1CCCCO[C@@H](CN(C)Cc2ccc3c(c2)OCO3)[C@H](C)CN([C@H](C)CO)C(=O)c2cc(NC(=O)Nc3ccc4c(c3)OCO4)ccc2O1`: the cytotoxicity call in experiment [1] was “inactive”. Besides, the cytotoxicity call in experiment [2] is “active”. In addition, the growth inhibition call in experiment [3] is “inactive”.

Take `Cc1cccc(Nc2ccncc2S(=O)(=O)NC(=O)NC(C)C)c1`: the cytotoxicity call in experiment [1] and in experiment [2] was “inactive” each time. Besides, in experiment [3], the growth inhibition call was “inactive”.

For the compound `FC(F)(F)COCC(F)(F)F`, the cytotoxicity call in experiment [1] and in experiment [2] was “inactive” each time. Besides, the growth inhibition call in experiment [3] was “inactive”.

In the case of `CC(C)NC(=O)Nc1ccc2c(c1)CC(=O)N([C@@H](C)CO)C[C@@H](C)[C@@H](CN(C)C(=O)Nc1ccc3c(c1)OCO3)O2`, the cytotoxicity call in experiment [1] and in experiment [2] was “inactive” each time. In experiment [3], the growth inhibition call was “inactive”.

Turning to `CO[C@H]1CC[C@@H]2[C@H]1OCCN2C(=O)N(C)C`, the cytotoxicity call in experiment [1] and in experiment [2] was “inactive” throughout. In addition, the growth inhibition call in experiment [3] is “inactive”.

For `COc1ccc(cc1)CN1C[C@]2(CCN(CC2)Cc2ccccc2OC)c2c([nH]c3cc(ccc23)OC)[C@@H]1CO`, the cytotoxicity call in experiment [1] and in experiment [2] was “inactive” each time. Besides, the growth inhibition call in experiment [3] was “inactive”.

On to `COc1ccc(S(=O)(=O)N(C)C[C@H]2Oc3ccc(NC(=O)Cn4cnnn4)cc3C(=O)N([C@H](C)CO)C[C@H]2C)cc1`, for which the cytotoxicity call in experiment [1] and in experiment [2] was “inactive” throughout. Further, the growth inhibition call in experiment [3] was “inactive”.

The record behind these values is the antibiotic and cytotoxicity screens of Wong et al. (2023).
